Test [1] in a line: compounds raising F508del-CFTR protein level – cell-based, HeLa F508del-CFTR, immunofluorescence, viability, primary screen (AID 1224863).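 As to fold increase: total CFTR protein by anti-CFTR immunofluorescence in fixed cells.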 The settings on record: immunofluorescence total CFTR, 24 h, stronger effect = higher value; min viability: measured here: HeLa viability, alamarBlue, dose 50, library dosed in µM unless noted; viability: measured here: primary viability 25 uM, at 25 µM, library dosed in µM unless noted. On the technique in general: The colour change of resazurin is a common sign of viable cells or microbes.

The target of test [2] is Cystic fibrosis transmembrane conductance regulator (Homo sapiens) (UniProt P13569). The description is as above. The settings on record: immunofluorescence total CFTR, 24 h, stronger effect = higher value; measured here: primary screen single dose 25 uM, at 25 µM, library dosed in µM unless noted.
UniProt P13569, sequence (P13569 whole entry, looked up): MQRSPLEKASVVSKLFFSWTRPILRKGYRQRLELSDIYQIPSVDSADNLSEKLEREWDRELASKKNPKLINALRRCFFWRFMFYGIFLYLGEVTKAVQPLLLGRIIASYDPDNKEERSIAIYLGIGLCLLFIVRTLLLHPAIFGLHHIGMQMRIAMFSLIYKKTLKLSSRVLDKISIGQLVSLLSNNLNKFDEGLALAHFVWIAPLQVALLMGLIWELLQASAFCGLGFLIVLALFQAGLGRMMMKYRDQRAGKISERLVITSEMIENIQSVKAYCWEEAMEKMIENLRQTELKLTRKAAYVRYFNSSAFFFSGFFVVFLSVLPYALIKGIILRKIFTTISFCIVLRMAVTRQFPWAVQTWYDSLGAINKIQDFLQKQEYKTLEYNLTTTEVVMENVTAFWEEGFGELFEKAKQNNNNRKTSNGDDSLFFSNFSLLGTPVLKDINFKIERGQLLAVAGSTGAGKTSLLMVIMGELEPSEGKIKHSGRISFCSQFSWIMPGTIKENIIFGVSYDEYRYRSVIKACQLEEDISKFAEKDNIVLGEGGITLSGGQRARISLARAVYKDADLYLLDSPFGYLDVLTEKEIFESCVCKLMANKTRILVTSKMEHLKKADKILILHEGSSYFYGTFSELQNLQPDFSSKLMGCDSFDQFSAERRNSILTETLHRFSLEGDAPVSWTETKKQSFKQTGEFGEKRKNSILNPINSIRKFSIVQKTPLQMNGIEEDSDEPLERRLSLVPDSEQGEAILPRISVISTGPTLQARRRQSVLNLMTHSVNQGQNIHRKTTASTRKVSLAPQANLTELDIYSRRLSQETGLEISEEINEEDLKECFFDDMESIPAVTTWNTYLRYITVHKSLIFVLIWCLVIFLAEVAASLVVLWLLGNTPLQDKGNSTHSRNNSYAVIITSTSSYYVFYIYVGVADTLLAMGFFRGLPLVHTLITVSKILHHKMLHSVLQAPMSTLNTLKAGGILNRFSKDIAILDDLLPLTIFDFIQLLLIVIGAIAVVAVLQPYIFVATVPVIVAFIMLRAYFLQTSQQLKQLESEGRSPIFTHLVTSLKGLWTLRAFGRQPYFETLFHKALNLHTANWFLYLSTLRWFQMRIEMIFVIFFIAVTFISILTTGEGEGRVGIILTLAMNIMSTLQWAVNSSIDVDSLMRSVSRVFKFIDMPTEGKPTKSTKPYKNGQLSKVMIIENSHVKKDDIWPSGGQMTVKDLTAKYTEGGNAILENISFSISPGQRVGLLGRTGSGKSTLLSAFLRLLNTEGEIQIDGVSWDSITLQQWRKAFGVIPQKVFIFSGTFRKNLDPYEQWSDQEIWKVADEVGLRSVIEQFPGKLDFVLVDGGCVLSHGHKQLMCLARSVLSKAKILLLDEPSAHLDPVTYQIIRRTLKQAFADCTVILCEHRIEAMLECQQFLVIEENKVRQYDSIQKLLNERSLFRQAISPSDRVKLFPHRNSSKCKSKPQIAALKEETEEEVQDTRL

Each structure is given as a SMILES string. Some of the results follow. Shown are side measurements of this screen, not its main read-out; they come without a call.

As usually defined, the viability is a per cent measure of how many cells are alive, often set against a control. Regarding `C=C[C@@H]1CN2CC[C@@H]1C[C@H]2[C@H](O)c1ccnc2ccc(OC)cc12`, the viability in test [1] stood at 97%. In addition, in test [2], the fold increase turned out to be 1.12.

As to `O=C(OCc1coc(-c2cccs2)n1)c1sccc1-n1cccc1`, in test [1], the min viability was 64.1% [measured here: HeLa viability, alamarBlue, dose 0.078, library dosed in µg/mL] and the viability was 83% [measured here: primary viability 10 ug/mL, library dosed in µg/mL]. The fold increase in test [2] was 1.6 [measured here: primary screen 10 ug/mL, library dosed in µg/mL].

Regarding `O=c1[nH]c(=O)n(C2CC2)c2nc(C3CC3)nc(SCc3nnsc3Cl)c12`, in test [1], the min viability is 80.9% [measured here: HeLa viability, alamarBlue, dose 1.25, library dosed in µg/mL] and the viability is 91% [measured here: primary viability 10 ug/mL, library dosed in µg/mL]. Also, in test [2], the fold increase is 1.53 [measured here: primary screen 10 ug/mL, library dosed in µg/mL].

On to `CC(C)Cn1nnnc1Sc1nnnn1-c1ccccc1`, for which, in test [1], the min viability is 64.2% [measured here: HeLa viability, alamarBlue, dose 20, library dosed in µg/mL] and the viability was 91% [measured here: primary viability 10 ug/mL, library dosed in µg/mL]. In addition, the fold increase in test [2] is 1.68 [measured here: primary screen 10 ug/mL, library dosed in µg/mL].

With `c1ccc(-c2csc3nc(-c4ccccn4)nc(N4CCN(CC5CCCO5)CC4)c23)cc1` (stereo unspecified), in test [1], the min viability is 68.2% [measured here: HeLa viability, alamarBlue, dose 1.25, library dosed in µg/mL] and the viability is 90% [measured here: primary viability 10 ug/mL, library dosed in µg/mL]. The fold increase in test [2] was 2.89 [measured here: primary screen 10 ug/mL, library dosed in µg/mL].

Take `OCCCc1nc2ccccc2n1CC(O)COC(c1ccc(F)cc1)c1ccc(F)cc1` (stereo unspecified): in test [1], the min viability is 64.4% [measured here: HeLa viability, alamarBlue, dose 1.25, library dosed in µg/mL] and the viability is 81% [measured here: primary viability 10 ug/mL, library dosed in µg/mL]. Moreover, in test [2], the fold increase was 1.69 [measured here: primary screen 10 ug/mL, library dosed in µg/mL].

As to `CN1C2CCC1CC(OC(=O)C(CO)c1ccccc1)C2` (stereo unspecified), the viability in test [1] came out at 83%. Further, the fold increase in test [2] was found to be 1.05.

As for `O=C(OC[C@H]1O[C@H](OC(=O)c2cc(O)c(O)c(OC(=O)c3cc(O)c(O)c(O)c3)c2)[C@H](OC(=O)c2cc(O)c(O)c(OC(=O)c3cc(O)c(O)c(O)c3)c2)[C@@H](OC(=O)c2cc(O)c(O)c(OC(=O)c3cc(O)c(O)c(O)c3)c2)[C@@H]1OC(=O)c1cc(O)c(O)c(OC(=O)c2cc(O)c(O)c(O)c2)c1)c1cc(O)c(O)c(OC(=O)c2cc(O)c(O)c(O)c2)c1`, in test [1], the min viability is 66.9% [measured here: HeLa viability, alamarBlue, dose 3.13, library dosed in µM] and the viability amounted to 83%. The same compound came in with a fold increase in test [2] of 1.9.

On to `CN(C)CCSc1nc2ccccc2c2nc(=O)c(-c3ccccc3)nn12`, for which, in test [1], the min viability is 67.9% [measured here: HeLa viability, alamarBlue, dose 20, library dosed in µg/mL] and the viability was 83% [measured here: primary viability 10 ug/mL, library dosed in µg/mL]. The fold increase in test [2] was 1.82 [measured here: primary screen 10 ug/mL, library dosed in µg/mL].

As to `Cc1ccsc1/C=c1\s/c(=C\C(=O)c2ccco2)n(C)c1=O`, in test [1], the min viability is 75.8% [measured here: HeLa viability, alamarBlue, dose 0.078, library dosed in µg/mL] and the viability is 96% [measured here: primary viability 10 ug/mL, library dosed in µg/mL]. For the same compound, the fold increase in test [2] is 3.01 [measured here: primary screen 10 ug/mL, library dosed in µg/mL].

Consider `CN(C/C=C/C#CC(C)(C)C)Cc1cccc2ccccc12`, for which the min viability in test [1] is 67.4% [measured here: HeLa viability, alamarBlue, dose 25, library dosed in µM].

In test [1], `CC[n+]1c(-c2ccccc2)c2cc(N)ccc2c2ccc(N)cc21` had a min viability of 66% and a viability of 82%. In test [2], this compound yielded a fold increase of 1.82.

On to `Cc1ccccc1Cn1ncc(Cl)c(Cl)c1=O`, for which, in test [1], the min viability is 58.9% [measured here: HeLa viability, alamarBlue, dose 0.039, library dosed in µg/mL] and the viability is 73% [measured here: primary viability 10 ug/mL, library dosed in µg/mL]. For the same compound, the fold increase in test [2] was 1.24 [measured here: primary screen 10 ug/mL, library dosed in µg/mL].

Consider `O=c1cc(CN2CCCCC2)[nH]c(=O)[nH]1`, for which, in test [1], the min viability was 87.2% [measured here: HeLa viability, alamarBlue, dose 5, library dosed in µg/mL] and the viability is 68% [measured here: primary viability 10 ug/mL, library dosed in µg/mL]. The fold increase in test [2] was 1.27 [measured here: primary screen 10 ug/mL, library dosed in µg/mL].

On to `Cn1cc(C(=O)NC2CCN(C(=O)Nc3nnc(C4CC4)s3)CC2)cn1`, for which, in test [1], the min viability is 66% [measured here: HeLa viability, alamarBlue, dose 0.039, library dosed in µg/mL] and the viability is 90% [measured here: primary viability 10 ug/mL, library dosed in µg/mL]. Further, in test [2], the fold increase was 1.7 [measured here: primary screen 10 ug/mL, library dosed in µg/mL].

These data come from PubChem BioAssay AID1224863 (Southern Research Institute, 2016).
